According to PubChem BioAssay AID2147 (National Center for Advancing Translational Sciences (NCATS), 2009):
The campaign covered roughly 230,000 compounds. About 3,600 (1.6%) were called active. Inconclusive means that the source gave no clear call. Such entries were picked first, then a sample of the others. Calls come from the whole dose curve; as a rule, active = well fitted inhibition curve with a large enough effect (not every such curve was filed as active); inconclusive = small, poorly fitted or top-dose-only effect, or another doubt; inactive = no such curve, though single readings can be large or run the other way. Potencies of inconclusive entries are doubtful fits and often do not repeat.

molecular target: Lysine-specific demethylase 4E (Homo sapiens) (UniProt B2RXH2); assay: qHTS Assay for Inhibitors of Human Jumonji Domain Containing 2E (JMJD2E); settings: JMJD2E catalytic domain, FDH-coupled NADH fluorescence (FDH is formaldehyde dehydrogenase); series mostly up to 57.1 µM
Note: nearly all actives have a fitted effect of over 50% in size.
Potency is the fitted concentration of half-maximal effect; tags give direction and shape of the fitted curve.

UniProt B2RXH2, sequence (B2RXH2 whole entry, looked up, the tested form may be a part): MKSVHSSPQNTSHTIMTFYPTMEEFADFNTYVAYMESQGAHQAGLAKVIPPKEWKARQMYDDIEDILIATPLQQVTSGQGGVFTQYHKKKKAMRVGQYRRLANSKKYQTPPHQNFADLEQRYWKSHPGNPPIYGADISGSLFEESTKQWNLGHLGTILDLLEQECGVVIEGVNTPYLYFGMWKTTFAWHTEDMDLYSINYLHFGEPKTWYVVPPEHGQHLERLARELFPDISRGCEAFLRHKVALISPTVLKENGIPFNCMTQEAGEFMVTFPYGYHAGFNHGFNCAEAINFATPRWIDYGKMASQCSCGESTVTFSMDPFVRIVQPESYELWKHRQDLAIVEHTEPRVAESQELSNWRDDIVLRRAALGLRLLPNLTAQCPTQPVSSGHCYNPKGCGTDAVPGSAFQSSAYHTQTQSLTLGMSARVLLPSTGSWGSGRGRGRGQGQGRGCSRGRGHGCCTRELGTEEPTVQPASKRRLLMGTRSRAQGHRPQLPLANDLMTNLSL

| Structure (SMILES) | Potency |
| --- | --- |
| O=C(NC12CC3CC(CC(C3)C1)C2)c1ccccc1O | inconclusive: 22.4 µM [inhibitor, partial curve] |
| CCOC(=O)c1c(NC(=O)c2ccccc2N(C)S(=O)(=O)c2ccccc2)sc2c1CCCC2 | inconclusive: 35.5 µM [inhibitor, partial curve] |
| Cc1[nH]nc2c1C(c1cccs1)C1=C(CC(C)(C)CC1=O)N2 (stereo not drawn) | inconclusive: 15.8 µM [inhibitor, partial curve] |
| CC(Sc1nnc2ccccn12)C(=O)NCc1ccc2c(c1)OCO2 (stereo not drawn) | inconclusive: 28.2 µM [inhibitor, single point] |
| N#C/C=C\Oc1ccc(Cl)cc1N | inconclusive: 2.82 µM [inhibitor, full curve, poor fit] |
| CCOC(=O)c1cnc(-n2nc(C)cc2C)nc1Nc1ccc(N(C)C)cc1 | inactive |
| OC(CNc1nc2ccccc2s1)c1ccccc1 (stereo not drawn) | inactive |
| ClC1(Cl)CC1Cn1c(C2CC2)nc2ccccc21 (stereo not drawn) | inactive |
| O=C(CCCCC(=O)N1CCN(c2ccccc2)CC1)N1CCN(c2ccccc2)CC1 | inactive |
| COc1ccc2cnn(CCOc3ccccc3)c(=O)c2c1OC | inconclusive: 39.8 µM [inhibitor, single point] |
| CC(C)(C)C(=O)N1N=C(c2ccc(NS(C)(=O)=O)cc2)CC1c1cccs1 (stereo not drawn) | inconclusive: 31.6 µM [inhibitor, partial curve] |
| Cc1cc(NC(=O)c2cc(-c3ccco3)on2)nn1Cc1ccc(Cl)cc1 | inactive |
| Cc1ccc(-c2c3c(=O)n(C)c(=O)n(C)c3cn2N2CCOCC2)cc1 | inconclusive: 39.8 µM [inhibitor, single point] |
| O=C(c1nn(Cc2ccccc2)c(=O)c2ccccc12)N1CCN(C/C=C/c2ccccc2)CC1 | inactive |
| CCS(=O)(=O)c1nc(NC(C)=O)n[nH]1 | inconclusive: 31.6 µM [inhibitor, single point] |
| Cc1ccc(NC(=O)C(c2ccccc2)N(C)C)cc1Cl (stereo not drawn) | inactive |
| CCOC(=O)c1c(N)n(CC(C)NC(=O)C2CC2)c2nc3ccccc3nc12 (stereo not drawn) | inconclusive: 8.91 µM [inhibitor, partial curve] |
| O=C(Nc1ccccc1)C1Cc2ccccc2CN1C(=O)c1ccco1 (stereo not drawn) | inactive |
| Cc1ccc(C)n1-c1ccc(N(C)C)cc1 | active: 15.8 µM |
| CCn1cc(C(=O)O)c(=O)c2cc(F)c(N3CCN(C(=S)NC(=O)c4cccc(C)c4)CC3)cc21 | inconclusive: 25.1 µM [inhibitor, partial curve] |
| CC(=O)c1cc2c(cc1NC(=O)CN1CCOCC1)OCO2 | inconclusive: 31.6 µM [inhibitor, single point] |
| Nc1c(-c2ccccc2)cnc2cc(-c3ccccc3)nn12 | inconclusive: 28.2 µM [inhibitor, single point] |
| O=C(COc1ccc2ccccc2c1Br)N1CCN(c2ccccn2)CC1 | inconclusive: 39.8 µM [inhibitor, single point] |
| CN(CCOC(=O)/C=C/c1ccco1)Cc1ccccc1 | inactive |
| COc1ccc(CSCCc2n[nH]c(=S)n2-c2ccccc2)cc1C | inconclusive: 39.8 µM [inhibitor, single point] |

| Structure (SMILES) | Potency |
| --- | --- |
| Cc1ccc(S(=O)(=O)N/N=C\c2cc3c(cc2Br)OCO3)cc1 | inactive |
| Nc1nnc(N2CCCCCC2)s1 | inactive |
| O=C(/C=C/c1ccco1)NC(=S)Nc1nc(-c2ccc3ccccc3c2)cs1 | inconclusive: 35.5 µM [inhibitor, single point] |
| C=CCn1c(-c2cccn(Cc3cccc(Cl)c3)c2=O)n[nH]c1=S | inconclusive: 25.1 µM [inhibitor, single point] |
| CN(C)S(=O)(=O)c1cccc(C(=O)N=C2N=C3C=CC(Cl)=CN3Cc3ccccc32)c1 | inconclusive: 28.2 µM [inhibitor, partial curve] |
| O=c1[nH]c2ccccc2c2oc(CCl)nc12 | inconclusive: 28.2 µM [inhibitor, partial curve] |
| CCSC1=C(C#N)C(c2ccc(Cl)cc2)C2=C(CCCC2=O)N1 (stereo not drawn) | inconclusive: 15.8 µM [inhibitor, partial curve] |
| CCOc1cc(/C=N\NC(N)=O)cc(Br)c1OC(C)C | inactive |
| Cc1ccc(NC(=S)N(CCCN(C)C)Cc2cc3cc4c(cc3[nH]c2=O)OCO4)cc1 | inconclusive: 28.2 µM [inhibitor, single point] |
| COCCn1c(N)c(C(=O)NCc2cccs2)c2nc3ccccc3nc21 | inconclusive: 28.2 µM [inhibitor, partial curve] |
| Cc1ccc(/C=C/c2nc3ccccc3c(=O)n2CCc2ccccc2)cc1 | inconclusive: 28.2 µM [inhibitor, single point] |
| COc1ccc(C2C(C#N)=C(N)Oc3cc(C)n(Cc4ccncc4)c(=O)c32)cc1 (stereo not drawn) | inconclusive: 39.8 µM [inhibitor, single point] |
| Cc1ccc(C2/C(=C(\O)c3c(C)nc4ccccn34)C(=O)C(=O)N2CCN(C)C)o1 (stereo not drawn) | inconclusive: 39.8 µM [inhibitor, single point] |
| O=C(NCc1n[nH]c(=S)n1-c1ccccc1)c1cccs1 | inactive |
| COC(=O)c1cc(NC(=O)c2cccc(C(F)(F)F)c2)c(=O)oc1C/C=N/OCc1cccc(Cl)c1Cl | active: 20 µM |
| Cc1ccc(C(=O)Nc2ccc(S(=O)(=O)NCc3ccco3)cc2)cc1 | inconclusive: 28.2 µM [inhibitor, partial curve] |
| COC(=O)c1c(NC(=O)C2(C)Cc3ccccc3C(=O)O2)sc2c1CCCC2 (stereo not drawn) | inconclusive: 35.5 µM [inhibitor, single point] |
| CCOc1ccc(C(=O)NC(=S)Nc2cccc(S(=O)(=O)NC3=NCCC3)c2)cc1 | inactive |
| CCCc1[nH]nc2c1C(c1cc(OC)ccc1F)C(C#N)=C(N)O2 (stereo not drawn) | inactive |
| CCOc1ccc(N=C2SC(C(=O)Nc3ccccc3C#N)C(N)=C2C(=O)Nc2ccc(Cl)cc2)cc1 (stereo not drawn) | inconclusive: 39.8 µM [inhibitor, single point] |
| CCOC(=O)c1c(C)[nH]c(C(=O)COC(=O)c2oc3ccccc3c2C)c1C | inactive |
| Cc1cc2nc(-c3ccc(SCC(=O)Nc4ccc(S(=O)(=O)NC5CC5)cc4)nc3)[nH]c2cc1C | inconclusive: 22.4 µM [inhibitor, partial curve] |
| Cc1cc(C)nc(SCc2nc3ccccc3n2C)n1 | inactive |
| CC(C)C1Cc2nc(Cl)c(C#N)cc2CO1 (stereo not drawn) | inconclusive: 39.8 µM [inhibitor, single point] |
| CC1CCN(C(=O)CNC(=O)Cn2ccc3ccccc3c2=O)CC1 | inconclusive: 22.4 µM [inhibitor, single point] |

| Structure (SMILES) | Potency |
| --- | --- |
| O=C(Nc1ccccc1)c1ccccc1NC(=O)C1CCCCC1 | inactive |
| Cc1cc(C)n(CCc2nc(-c3ccc(F)cc3)cs2)n1 | inactive |
| COc1ccc(Oc2nc(-c3ccccc3)ncc2S(=O)(=O)c2ccccc2)cc1 | inconclusive: 39.8 µM [inhibitor, single point] |
| O=CC1=C(N2CCOCC2)/C(=C\c2ccccc2)CC1 | inactive |
| O=C(Nc1ccc(Cl)cc1C(F)(F)F)C(Sc1nnc(-c2cccs2)o1)c1ccccc1 (stereo not drawn) | inactive |
| O=S(=O)(Nc1nc2ccccc2nc1Cl)c1ccc(Br)cc1 | inconclusive: 28.2 µM [inhibitor, partial curve] |
| O=C1c2ccccc2NC(c2ccccn2)N1c1ccc(Cl)cc1 (stereo not drawn) | inconclusive: 31.6 µM [inhibitor, partial curve] |
| Cc1nc(Cl)c(C#N)c2c1CCCC2 | inconclusive: 35.5 µM [inhibitor, single point] |
| NS(=O)(=O)c1ccc(N/N=C/c2ccc(C(=O)O)cc2)c([N+](=O)[O-])c1 | inactive |
| CCOc1ccc(-c2nc(CCl)cs2)cc1OC | inconclusive: 28.2 µM [inhibitor, partial curve] |
| COC(=O)Cn1ccc(-c2ccc(Cl)cc2)c(C#N)c1=O | inconclusive: 25.1 µM [inhibitor, partial curve] |
| O=C(COc1ccccc1Cl)OCC(=O)N1CCN(S(=O)(=O)c2ccccc2)CC1 | inconclusive: 39.8 µM [inhibitor, single point] |
| Cc1ccc2nc(SCc3nnc(-c4cccs4)o3)[nH]c2c1 | inactive |
| CCc1nnc(NC(=O)Cn2nc(-c3ccccc3OC)ccc2=O)s1 | inconclusive: 39.8 µM [inhibitor, single point] |
| Fc1ccc(-c2cc(-c3nnc4n3CCCCC4)c3ccccc3n2)cc1 | inconclusive: 35.5 µM [inhibitor, single point] |
| COc1cc(OC)c(-c2nc3ccccc3s2)cc1OC | inconclusive: 31.6 µM [inhibitor, partial curve] |
| CCn1ncc([N+](=O)[O-])c1C(=O)Nc1ccc(C(=O)N2CCCCC2)cc1 | inactive |
| O=C(NC1CCCCC1)C(c1ccc2ncccc2c1)N(Cc1ccc2c(c1)OCO2)C(=O)c1cccs1 (stereo not drawn) | inactive |
| Cc1ccc(C(=O)N(CCCN(C)C)c2nc3ccc(Cl)cc3s2)cc1C | inactive |
| COc1cccc(NC2c3ccccc3C(=O)N2Cc2ccco2)c1 (stereo not drawn) | inactive |
| O=C(NCc1cccnc1)c1cc(Sc2ccccc2Cl)nc2ccccc12 | inconclusive: 39.8 µM [inhibitor, single point] |
| COc1cc2c3nnc(-c4ccc(F)cc4)c-3cn(Cc3ccc(C)cc3)c2cc1OC | inconclusive: 3.98 µM [inhibitor, partial curve] |
| Cc1ccc(N=CC=C2OC(C)(C)C(C)(C)O2)c(C)c1 | inconclusive: 25.1 µM [inhibitor, partial curve] |
